The campaign covered roughly 310,000 compounds. About 14,000 (4.5%) showed an effect of 50% or more. Effects have a minus sign here. The list shows a part of the results.
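Note: peak tail current of the secondary pulse compared with the same well before compound.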

Chain of human ether-à-go-go-related gene (hERG) potassium channel (Q12809 whole entry, looked up): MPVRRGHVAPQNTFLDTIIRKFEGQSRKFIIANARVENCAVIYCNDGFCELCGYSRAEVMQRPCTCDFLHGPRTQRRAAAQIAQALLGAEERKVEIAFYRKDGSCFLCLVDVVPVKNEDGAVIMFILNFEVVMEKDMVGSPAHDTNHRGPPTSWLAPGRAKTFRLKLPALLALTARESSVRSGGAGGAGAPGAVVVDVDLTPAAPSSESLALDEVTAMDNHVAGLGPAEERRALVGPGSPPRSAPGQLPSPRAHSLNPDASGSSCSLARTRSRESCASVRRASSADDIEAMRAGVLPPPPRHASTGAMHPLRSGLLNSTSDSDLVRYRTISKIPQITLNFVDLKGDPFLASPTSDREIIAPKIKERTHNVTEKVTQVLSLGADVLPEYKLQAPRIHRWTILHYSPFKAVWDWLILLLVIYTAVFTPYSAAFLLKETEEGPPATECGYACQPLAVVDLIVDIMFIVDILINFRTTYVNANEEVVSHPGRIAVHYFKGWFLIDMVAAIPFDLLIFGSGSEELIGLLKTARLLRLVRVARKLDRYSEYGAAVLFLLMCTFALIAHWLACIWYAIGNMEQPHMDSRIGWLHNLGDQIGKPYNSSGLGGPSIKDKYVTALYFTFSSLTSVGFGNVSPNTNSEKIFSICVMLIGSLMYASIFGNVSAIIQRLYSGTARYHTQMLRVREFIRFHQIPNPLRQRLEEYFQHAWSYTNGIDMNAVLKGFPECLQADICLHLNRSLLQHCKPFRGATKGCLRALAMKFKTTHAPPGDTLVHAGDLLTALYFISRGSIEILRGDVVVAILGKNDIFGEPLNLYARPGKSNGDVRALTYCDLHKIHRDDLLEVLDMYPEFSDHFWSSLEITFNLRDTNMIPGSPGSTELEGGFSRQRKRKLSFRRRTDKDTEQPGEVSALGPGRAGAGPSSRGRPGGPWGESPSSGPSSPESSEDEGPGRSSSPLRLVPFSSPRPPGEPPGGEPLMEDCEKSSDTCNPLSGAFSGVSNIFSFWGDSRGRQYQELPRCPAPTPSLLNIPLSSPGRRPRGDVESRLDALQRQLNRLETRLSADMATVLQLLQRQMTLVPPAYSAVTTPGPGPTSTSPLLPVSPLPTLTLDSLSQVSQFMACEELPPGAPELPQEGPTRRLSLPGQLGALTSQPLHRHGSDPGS

The experiment has as its target human ether-à-go-go-related gene (hERG) potassium channel (human, UniProt Q12809). Nature of the experiment: primary screen, population patch clamp on CHO cells stably expressing hERG.
For the molecule `COc1cc(/C=C2/C(=N)N3C(=NC2=O)SN=C3S(C)(=O)=O)ccc1OS(=O)(=O)c1ccc(C)cc1`, the “hERG current change (%, negative = inhibition) at 10uM” value was 19%.
Regarding `CC[C@@]12C(=O)N(c3cccc(Br)c3)C(=O)N1[C@H](c1cccc(C)c1)[C@@H]1C(=O)N(Cc3ccccc3)C(=O)[C@@H]12`, the “hERG current change (%, negative = inhibition) at 10uM” value amounted to 10.9%.
The result for `O=c1oc(C2(O)CCCCC2)cc2ccc(/C=C/c3ccc(F)cc3)cc12` reads 19.5%; that for `CCOc1cc(/C=C2/SC(=S)N(CC3CCCO3)C2=O)ccc1O` (centres unmarked), 17.4%.
The result for `COc1ccc(C2/C=C\CN(C(=O)Nc3ccccc3-c3ccccc3)CC(=O)N2Cc2ccc(F)cc2)cc1` (centres unmarked) reads 18%; that for `CN1C(=O)C2C(c3ccc(N(C)C)cc3)NN(Cc3ccccc3)C2C1=O` (centres unmarked), -0.68%; that for `O=C(CSc1ccc2nnc(CCNC(=O)c3ccccc3)n2n1)NCc1ccco1`, 12.3%.
Turning to `CN(C)c1ccc(Nc2nc(N)c([N+](=O)[O-])c(N3CCOCC3)n2)cc1`, the “hERG current change (%, negative = inhibition) at 10uM” value is reported as -6.07%.
In the case of `CC1CC(C)CN(C(=O)CN2C(=O)NC3(CCCCCCC3)C2=O)C1` (centres unmarked) it was -4.41%; in that of `CCN(c1ccc(NS(=O)(=O)c2cc(Cl)ccc2Cl)cc1)C(C)C`, -0.282%; in that of `O=c1c2ccccc2nc(CN2CCCCCC2)n1-c1ccc(F)cc1`, -14.9%.
In the case of `CCOCCCn1c(SCC(=O)Nc2cccc(OC)c2)nc2ccccc2c1=O` it was -58.4%; in that of `O=C(Nc1cccc(S(=O)(=O)Nc2ccc(Cl)cc2)c1)c1ccccn1.O=C(O)C(=O)O`, -10.8%.
As for `COc1ccc(/C=C2\SC(=O)N(CCNC(=O)C3=COCCO3)C2=O)cc1`, the “hERG current change (%, negative = inhibition) at 10uM” value is recorded as 2.9%.
As to `CC(=O)Nc1c(C(=O)Nc2ccc3c(c2)OCO3)oc2ccccc12`, the “hERG current change (%, negative = inhibition) at 10uM” value amounted to 16.5%.
For `Cn1c(=O)[nH]c(=O)c2c1nc(N1CCCC1)n2CC(O)COc1ccccc1` (centres unmarked), the “hERG current change (%, negative = inhibition) at 10uM” value was -10.5%.
For the molecule `CCOc1ccccc1C1CC(=O)NC2=C1C(=O)CC(C)(C)C2` (centres unmarked), the “hERG current change (%, negative = inhibition) at 10uM” value is reported as -3.21%.
Turning to `CCN1C(=O)N[C@@H](c2cccc(C(F)(F)F)c2)[C@H](C(C)=O)[C@H]1C`, the “hERG current change (%, negative = inhibition) at 10uM” value is on record as -3.36%.
In the case of `NS(=O)(=O)c1ccc(CCNC(=O)c2ccc(S(=O)(=O)N3CCCCC3)cc2)cc1` it was 7.95%.
For the molecule `O=C(NCc1ccccn1)c1cc(-c2ccccc2)on1`, the “hERG current change (%, negative = inhibition) at 10uM” value turned out to be 1.85%.
As to `CN(CC(=O)Nc1c(Cl)cccc1Cl)C(=O)C1=COCCO1`, the “hERG current change (%, negative = inhibition) at 10uM” value was determined as 17.9%.
The result for `COc1ccc(-c2cc3ccc(OCc4nn[nH]n4)cc3oc2=O)cc1OC` reads -11.3%; that for `COCCN(C(=O)COC(=O)c1ccc(Cl)s1)c1c(N)n(Cc2ccccc2)c(=O)[nH]c1=O`, 14.2%; that for `O=C(NC1=NCCS1)c1cc(-c2cccc(Br)c2)nc2ccccc12`, -0.647%.
For `Cc1ccc2nc(-c3cc(-c4ccccc4)no3)cn2c1`, the “hERG current change (%, negative = inhibition) at 10uM” value is listed as 16.6%.
The result for `O=C(CNC1C(=O)Nc2ccccc21)Sc1ccccc1` (centres unmarked) reads 22.3%; that for `O=C(O)Cn1nnnc1SCC(=O)Nc1ccc(OC(F)(F)F)cc1`, -3.09%.
The result for `CC[C@H](C)[C@@H](C(=O)N1CCNCC1)n1cc([C@@H](N)CC(C)C)nn1.Cl` reads 11.9%; that for `CCCCCCSc1ccc([C@@H]2[C@H]3C(=O)N(CC)C(=O)[C@H]3[C@]3(C(=O)OC)CCCN23)cc1.O=C(O)C(F)(F)F`, -7.59%.
As to `CC(=O)N1CCc2ccc(S(=O)(=O)N3CC(C)OC(C)C3)cc21` (centres unmarked), the “hERG current change (%, negative = inhibition) at 10uM” value amounted to 36.1%.
The result for `CCn1c(C)nc2cc(C(=O)N/N=C(\C)c3ccc(N4CCOCC4)cc3)ccc21` reads 7.29%; that for `CC(=O)CCN1C(=O)NC2(CCCc3ccccc32)C1=O` (centres unmarked), 21.9%; that for `CC(=O)c1ccc(S(=O)(=O)Nc2ccc(C(=O)NCC(c3cccs3)N3CCOCC3)cc2)cc1` (centres unmarked), 2.34%.
Regarding `CN(CCc1ccccc1)C(=O)CCc1nnc(Cc2ccc3c(c2)OCO3)o1`, the “hERG current change (%, negative = inhibition) at 10uM” value is -9.1%.
For the molecule `COc1cc(CNC(C)c2ccccc2)cc(Cl)c1OCC(=O)Nc1ccccc1.Cl` (centres unmarked), the “hERG current change (%, negative = inhibition) at 10uM” value came out at 9.86%.
The result for `CCC(NC(=O)/C(=C\c1ccc2c(c1)OCO2)NC(C)=O)C(=O)O` (centres unmarked) reads -1.66%; that for `CC(=O)N=C1SC2CS(=O)(=O)CC2N1c1c(Cl)cccc1Cl` (centres unmarked), -6.76%.
The result for `O=C(O)C(=O)O.c1ccc(-c2ccc(OCCCNC3CCCC3)cc2)cc1` reads -86.1%; that for `Cc1ccccc1NC(=O)C1CC(=O)n2ncnc2N1` (centres unmarked), 18.1%; that for `COC(=O)c1ccc(C(=O)OC)c(NC(=O)CSc2cccc[n+]2[O-])c1`, -5.89%.
As to `NC(=O)C1CCN(c2oc(-c3ccc(F)cc3)nc2S(=O)(=O)c2ccccc2)CC1`, the “hERG current change (%, negative = inhibition) at 10uM” value is -17.4%.
The result for `O=C(CSCc1cnn(-c2ccccc2)c1-n1cccc1)N1CCN(Cc2ccccc2)CC1` reads -36%; that for `O=c1[nH]c(=S)[nH]c2nc(-c3ccccc3)cnc12`, 25.4%; that for `CCCC1Cc2c(sc3ncnc(N)c23)CO1` (centres unmarked), -4.42%.
`COc1ccc(-c2nnc(SCC(=O)NCc3cccs3)n2C(C)C)cc1`: the “hERG current change (%, negative = inhibition) at 10uM” value is reported as -35.8%.
For `O=C(COc1ccccc1Br)c1ccc(O)cc1O`, the “hERG current change (%, negative = inhibition) at 10uM” value is recorded as -8.36%.
In the case of `O=[N+]([O-])c1cccnc1S(=O)(=O)c1ccccc1` it was 15.9%; in that of `COc1cccc(NC(=O)N2CCCC2C(=O)NC2CC2)c1` (centres unmarked), 3.61%.
The result for `Cn1c(-c2cc3ccccc3oc2=O)nc2ccccc21` reads 5%; that for `COc1cc(OC)c(C(=O)NNC(=O)CN(C)S(=O)(=O)c2ccc(Cl)cc2)cc1OC`, -19.2%.
The result for `COc1ccc(-n2ccnc2SCC(=O)Nc2ccccc2)cc1` reads -28%; that for `O=C(CSc1cn(Cc2ccccc2)c2ccccc12)Nc1nccs1`, 8.44%.
`c1ccc(Oc2ccc(-n3cnnn3)cc2)cc1`: the “hERG current change (%, negative = inhibition) at 10uM” value is given as -7.4%.

For the origin of these results see publication PMC4336329 (PLoS ONE, 2015).
